Measurements: PubChem BioAssay AID686971 (National Center for Advancing Translational Sciences (NCATS), 2013)
About 7,500 (2.1%) of roughly 360,000 compounds were called active. Inconclusive means that the source gave no clear call. Such entries were picked first, then a sample of the others. Calls come from the whole dose curve; as a rule, active = well fitted cell-killing curve with a large enough effect; inconclusive = small, poorly fitted or top-dose-only effect, or effect the other way, or another doubt; inactive = no such curve, though single readings can be large or run the other way. No potency is given beside an inconclusive call; the fits are too rough.

Assay: qHTS for induction of synthetic lethality in tumor cells producing 2HG: qHTS for the HT-1080-IDH1KD cell line
Details: HT-1080 IDH1 knockdown viability, ATP luminescence, 48 h; series mostly up to 46.1 µM
Method in brief: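 In this qHTS, HT-1080 cells depleted of IDH1 are exposed for 48 h at 37 °C to compound titrations. Toxicity is scored from CellTiter-Glo luminescence, with DMSO as full viability and medium alone as none.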
Potency is the fitted concentration of half-maximal effect; tags give direction and shape of the fitted curve.

| SMILES | Potency |
| --- | --- |
| CC1=Nc2ccc(C)cc2/C1=C/c1c(N)n2c(S(=O)(=O)C(C)C)nsc2nc1=O | inactive |
| CC(=O)c1ccc(COC(=O)Cc2ccc([N+](=O)[O-])cc2)cc1 | inactive |
| CC(C)c1ccc(NC(=O)C2Cc3c(-c4ccc(Cl)cc4)ccnc3O2)cc1 (stereo not drawn) | inconclusive [cytotoxic, partial curve] |
| C#CCNC(=O)c1csc([C@@H]2O[C@H](CO)[C@@H](O)[C@H]2O)n1 | inconclusive [rising, single point] |
| Cc1ccc(C(=O)OCC(=O)Nc2c(C)n(C)n(-c3ccccc3)c2=O)cc1[N+](=O)[O-] | inactive |
| COc1ccc(C(=O)NNC(=S)NC(=O)c2cccc([N+](=O)[O-])c2)cc1 | inconclusive [cytotoxic, single point] |
| CCCCOc1ccccc1C(=O)NNC(=S)NC(=O)c1ccccc1[N+](=O)[O-] | inconclusive [cytotoxic, partial curve] |
| O=C1Nc2ccc(Br)cc2/C1=C/C(=O)c1ccc2c(c1)OCO2 | inconclusive [cytotoxic, single point] |
| CC(=O)C1=CCC(c2ccccc2)N(S(C)(=O)=O)C1 (stereo not drawn) | inactive |
| Cc1ccc(C(=O)Nc2cccc(C(=O)NCc3ccccc3)c2)cc1 | inconclusive [cytotoxic, partial curve] |
| Cc1cc(C)cc(NC(=O)[C@H](Cc2c[nH]c3ccccc23)NC(=O)[C@@H]2Cc3ccccc3CN2)c1 | inconclusive [cytotoxic, single point] |
| CN(C)c1ccc2c(O)cc(=O)n(C)c2c1 | inconclusive [cytotoxic, single point] |
| Clc1ccc(Cl)c(OCCCCNCc2ccccc2)c1 | inconclusive [cytotoxic, single point] |
| C=CCC(Nc1ccccc1)C12C=CC(O1)C(C(=O)OC)=C2C(=O)OC (stereo not drawn) | inconclusive [cytotoxic, single point] |
| O=C(NCc1ccccc1)N1CCN(c2ccc(Cl)c(Cl)c2)CC1 | inconclusive [cytotoxic, single point] |
| CCOc1ccc(S(=O)(=O)NCCC(=O)NCCOc2ccccc2)cc1 | inactive |
| O=C(Cn1cnc([N+](=O)[O-])c1)Nc1cc(Oc2ccc(Cl)cc2Cl)cc([N+](=O)[O-])c1 | inconclusive [cytotoxic, single point] |
| O=[N+]([O-])c1cc(/C=N/O)ccc1Sc1ccccc1 | inconclusive [cytotoxic, single point] |
| CN(c1ccc(OCC(=O)Nc2ccccc2C(=O)O)cc1)S(=O)(=O)c1ccc(Cl)cc1 | inconclusive [cytotoxic, partial curve] |
| CCO[C@@H]1OC(C(=O)NCc2ccccc2)=C[C@H](c2coc3ccccc3c2=O)[C@H]1CCCO | inactive |
| Fc1ccccc1/C=C1\CCCC2=C1Nc1nnnn1C2c1ccccc1F (stereo not drawn) | active: 10 µM |
| Cn1c(=O)c2c(ncn2CC(=O)Nc2ccc3c(c2)OCO3)n(C)c1=O | inactive |

| SMILES | Potency |
| --- | --- |
| O=C(CNC(=S)N(Cc1ccccc1)Cc1ccccc1F)NCCc1ccc(Cl)cc1 | active: 16.4 µM |
| Cc1ccc(C(=O)NNC(=S)NC(=O)c2ccccc2)cc1 | inconclusive [cytotoxic, single point] |
| CCCC/C=C/C(NC(=O)c1ccc(-c2ccccc2)cc1)c1ccccc1 (stereo not drawn) | inconclusive [cytotoxic, single point] |
| CC(NC(=O)c1ccccc1Cl)c1ccc(-n2ccnc2)cc1 (stereo not drawn) | inactive |
| Cc1ccc(NC(=O)c2ccc(Cl)c(N3C(=O)C=CC3=O)c2)cc1 | inconclusive [cytotoxic, single point] |
| CCN(CC)CCNC(=O)c1ccc(NC(=O)c2cn(-c3ccccc3)nc2-c2cccs2)cc1 | inconclusive [cytotoxic, single point] |
| COc1ccc(-c2n(Cc3ccccc3)c3ccccc3[n+]2Cc2ccccc2)cc1 | active: 5.8 µM |
| CS(=O)(=O)N(CC(=O)Nc1ccccc1Sc1ccccc1)C1CCCCC1 | inconclusive [cytotoxic, single point] |
| COc1ccc(N(C)C(=O)c2ccc3c(Cl)c4c(nc3c2)CCCC4)c(OC)c1 | inconclusive [cytotoxic, single point] |
| O=S(=O)(c1ccc2c(c1)C(=NO)c1cc(S(=O)(=O)N3CCCCC3)ccc1-2)N1CCCCC1 | active: 0.58 µM |
| Cc1ccc(C(=O)c2cc([N+](=O)[O-])ccc2N2CCOCC2)cc1C | active: 1.84 µM |
| O=C(NNC(=O)c1csc(-c2cccs2)n1)c1ccc(Cl)cc1 | inconclusive [cytotoxic, single point] |
| O=C1CCC(=O)N(O)CCCCCNC(=O)CCC(=O)N(O)CCCCNC(=O)CCC(=O)N(O)CCCCCN1 | inconclusive [cytotoxic, single point] |
| O=C(NCCC1=CCCCC1)c1coc(=O)c(Br)c1 | active: 18.4 µM |
| CCCOc1ccc2cc(-c3ccccn3)c(=O)oc2c1 | inconclusive [cytotoxic, single point] |
| O=C(OCCN1CCOCC1)c1ccccc1 | inconclusive [rising, single point] |
| O=C(CN(CC1CCCO1)C(=O)CNS(=O)(=O)c1ccc(F)cc1)NCCc1ccccc1 (stereo not drawn) | inactive |
| COc1cccc(C(=O)NN/C(C)=C/C(=O)C(F)(F)C(F)(F)C(F)(F)F)c1 | active: 14.6 µM |
| COc1cc(CNC(=O)c2cc(-c3cc(F)ccc3OC(C)C)n[nH]2)cc(OC)c1 | inconclusive [cytotoxic, single point] |
| CC(=O)S[C@@H]1CC2=CC(=O)CC[C@]2(C)[C@H]2CC[C@@]3(C)[C@@H](CC[C@@]34CCC(=O)O4)[C@H]12 | inconclusive [cytotoxic, partial curve] |
| COC(=O)c1ccc(NC(=S)N2CCN(Cc3ccc(Cl)cc3)CC2)cc1 | inconclusive [cytotoxic, single point] |
